# Data published in the supplement of paper PMC8728848.
# This is one part of the list.
# B1: DrGRIFIN (Danio rerio), Q6DGJ1 (protein)
# chain: MTLRFEASCPDGLCPGWSVILKGETPPEASKFEINFLCDRDDRVAFHFNPRFTESDIICNSYMANRWGQEERCNHFPLGVEEPFQIEIYSDNDHFHVYIDKAKVMQYKHRVEDLKTITKLQVVNDVKISSLEITKKLFY
# Tests used:
# Assay in all cases: glycan array binding signal (z-score within array); higher = stronger binding
# Settings in all cases: glycan notation: IUPAC condensed, linker removed
# [1] = target: Neu5Ac(a2-6)Gal(b1-4)GlcNAc(b1-6)[Gal(b1-3)]GalNAc
# Procedure, shortened: (§1)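 Glycan array binding is given as a within-array Z-score, which can be read as non-binding when negative. The arrays, 3228 of them, came from the Consortium for Functional Glycomics database and were retained only where the protein sequence was available. Z-scores were averaged across arrays of the same protein sequence at different concentrations or buffers and across linkers.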
# [2] = target: Neu5Ac(a2-6)Gal(b1-4)GlcNAc6S
# Procedure, shortened: as §1
# Neu5Ac(a2-6)GalNAc = target: Neu5Ac(a2-6)GalNAc
# Procedure, shortened: as §1
# [3] = target: Neu5Ac(a2-6)GalNAc(b1-4)GlcNAc
# Procedure, shortened: as §1
# [4] = target: Neu5Ac(a2-6)GalNAc(b1-4)GlcNAc6S
# Procedure, shortened: as §1
# [5] = target: Neu5Ac(a2-6)GlcNAc(b1-4)GlcNAc
# Procedure, shortened: as §1
# [6] = target: Neu5Ac(a2-6)GlcNAc(b1-4)GlcNAc(b1-4)GlcNAc
# Procedure, shortened: as §1
# Neu5Ac(a2-8)Neu5Ac = target: Neu5Ac(a2-8)Neu5Ac
# Procedure, shortened: as §1
# [7] = target: Neu5Ac(a2-8)Neu5Ac(a2-3)Gal(b1-3)GalNAc(b1-4)[Neu5Ac(a2-3)]Gal(b1-4)Glc
# Procedure, shortened: as §1
# [8] = target: Neu5Ac(a2-8)Neu5Ac(a2-3)Gal(b1-3)GalNAc(b1-4)[Neu5Ac(a2-8)Neu5Ac(a2-3)]Gal(b1-4)Glc
# Procedure, shortened: as §1
# [9] = target: Neu5Ac(a2-8)Neu5Ac(a2-3)Gal(b1-4)Glc
# Procedure, shortened: as §1
# [10] = target: Neu5Ac(a2-8)Neu5Ac(a2-3)Gal(b1-4)GlcNAc
# Procedure, shortened: as §1
# [11] = target: Neu5Ac(a2-8)Neu5Ac(a2-3)[Gal(b1-3)GalNAc(b1-4)]Gal(b1-4)Glc
# Procedure, shortened: as §1
# [12] = target: Neu5Ac(a2-8)Neu5Ac(a2-3)[GalNAc(b1-4)]Gal(b1-4)Glc
# Procedure, shortened: as §1
# [13] = target: Neu5Ac(a2-8)Neu5Ac(a2-8)Neu5Ac
# Procedure, shortened: as §1
# [14] = target: Neu5Ac(a2-8)Neu5Ac(a2-8)Neu5Ac(a2-3)Gal(b1-4)Glc
# Procedure, shortened: as §1
# [15] = target: Neu5Ac(a2-8)Neu5Ac(a2-8)Neu5Ac(a2-3)[Gal(b1-3)GalNAc(b1-4)]Gal(b1-4)Glc
# Procedure, shortened: as §1
# [16] = target: Neu5Ac(a2-8)Neu5Ac(a2-8)Neu5Ac(a2-3)[GalNAc(b1-4)]Gal(b1-4)Glc
# Procedure, shortened: as §1
# [17] = target: Neu5Ac(a2-8)Neu5Ac(a2-8)Neu5Ac(a2-8)Neu5Ac(a2-3)[GalNAc(b1-4)]Gal(b1-4)Glc
# Procedure, shortened: as §1
# [18] = target: Neu5Ac(a2-8)Neu5Gc(a2-3)Gal(b1-4)GlcNAc
# Procedure, shortened: as §1
# [19] = target: Neu5Ac(b2-6)Gal(b1-4)GlcNAc
# Procedure, shortened: as §1
# Neu5Ac(b2-6)GalNAc = target: Neu5Ac(b2-6)GalNAc
# Procedure, shortened: as §1
# [20] = target: Neu5Ac9Ac(a2-3)Gal(b1-3)GlcNAc
# Procedure, shortened: as §1
# [21] = target: Neu5Ac9Ac(a2-3)Gal(b1-4)GlcNAc
# Procedure, shortened: as §1
# [22] = target: Neu5Ac9Ac(a2-6)Gal(b1-4)GlcNAc
# Procedure, shortened: as §1
# [23] = target: Neu5Gc(a2-3)Gal(b1-3)GlcNAc
# Procedure, shortened: as §1
# [24] = target: Neu5Gc(a2-3)Gal(b1-3)[Fuc(a1-4)]GlcNAc
# Procedure, shortened: as §1
# Neu5Gc(a2-3)Gal(b1-4)Glc = target: Neu5Gc(a2-3)Gal(b1-4)Glc
# Procedure, shortened: as §1
# [25] = target: Neu5Gc(a2-3)Gal(b1-4)GlcNAc
# Procedure, shortened: as §1
# [26] = target: Neu5Gc(a2-3)Gal(b1-4)GlcNAc(b1-3)Gal(b1-4)GlcNAc(b1-2)Man(a1-3)[Neu5Gc(a2-3)Gal(b1-4)GlcNAc(b1-3)Gal(b1-4)GlcNAc(b1-2)Man(a1-6)]Man(b1-4)GlcNAc(b1-4)GlcNAc
# Procedure, shortened: as §1
# [27] = target: Neu5Gc(a2-3)Gal(b1-4)[Fuc(a1-3)]GlcNAc
# Procedure, shortened: as §1
# [28] = target: Neu5Gc(a2-6)Gal(b1-4)GlcNAc
# Procedure, shortened: as §1
# Neu5Gc(a2-6)GalNAc = target: Neu5Gc(a2-6)GalNAc
# Procedure, shortened: as §1
# [29] = target: Neu5Gc(a2-8)Neu5Ac(a2-3)Gal(b1-4)GlcNAc
# Procedure, shortened: as §1
# [30] = target: Neu5Gc(a2-8)Neu5Gc(a2-3)Gal(b1-4)GlcNAc
# Procedure, shortened: as §1
# [31] = target: Neu5Gc(a2-8)Neu5Gc(a2-3)Gal(b1-4)GlcNAc(b1-3)Gal(b1-4)GlcNAc
# Procedure, shortened: as §1
# [32] = target: Neu5Gc(a2-8)Neu5Gc(a2-6)Gal(b1-4)GlcNAc
# Procedure, shortened: as §1
# [33] = target: Neu5Gc(b2-6)Gal(b1-4)GlcNAc
# Procedure, shortened: as §1
binder,measurement,setting,value
B1,glycan array binding signal (z-score),[1],-0.179
same,glycan array binding signal (z-score),[2],-0.115
same,glycan array binding signal (z-score),Neu5Ac(a2-6)GalNAc,-0.139
same,glycan array binding signal (z-score),[3],-0.072
same,glycan array binding signal (z-score),[4],-0.125
same,glycan array binding signal (z-score),[5],-0.184
same,glycan array binding signal (z-score),[6],-0.089
same,glycan array binding signal (z-score),Neu5Ac(a2-8)Neu5Ac,-0.131
same,glycan array binding signal (z-score),[7],-0.174
same,glycan array binding signal (z-score),[8],-0.162
same,glycan array binding signal (z-score),[9],-0.18
same,glycan array binding signal (z-score),[10],-0.125
same,glycan array binding signal (z-score),[11],-0.172
same,glycan array binding signal (z-score),[12],-0.146
same,glycan array binding signal (z-score),[13],-0.159
same,glycan array binding signal (z-score),[14],-0.178
same,glycan array binding signal (z-score),[15],-0.144
same,glycan array binding signal (z-score),[16],-0.185
same,glycan array binding signal (z-score),[17],-0.163
same,glycan array binding signal (z-score),[18],-0.172
same,glycan array binding signal (z-score),[19],-0.179
same,glycan array binding signal (z-score),Neu5Ac(b2-6)GalNAc,-0.135
same,glycan array binding signal (z-score),[20],-0.131
same,glycan array binding signal (z-score),[21],-0.192
same,glycan array binding signal (z-score),[22],-0.127
same,glycan array binding signal (z-score),[23],-0.223
same,glycan array binding signal (z-score),[24],-0.165
same,glycan array binding signal (z-score),Neu5Gc(a2-3)Gal(b1-4)Glc,-0.144
same,glycan array binding signal (z-score),[25],-0.208
same,glycan array binding signal (z-score),[26],-0.11
same,glycan array binding signal (z-score),[27],-0.167
same,glycan array binding signal (z-score),[28],-0.207
same,glycan array binding signal (z-score),Neu5Gc(a2-6)GalNAc,-0.148
same,glycan array binding signal (z-score),[29],-0.175
same,glycan array binding signal (z-score),[30],-0.16
same,glycan array binding signal (z-score),[31],-0.191
same,glycan array binding signal (z-score),[32],-0.187
same,glycan array binding signal (z-score),[33],-0.102
